Data reported in the RNAGym collection of RNA variant scans (doi:10.7554/elife.90254).
The source gives no read counts; variants with many changes may rest on few reads.

B1: OR4K15 (parent)
chain: GUUAACGGUCAUAGGCCAUGGAAACUAGGAGCACCAUUUCGCUGCCAGUGAAGAAAUGAACAAAGAAAAUCUGGGCCAGGCAGGCAUCAAAAGAAAUAGUCUUGCGCUCAACCAGAAAGUCUGUAAUCAUUUUAAGGGUA

Variants of: B1
Assay: self-cleavage, relative activity (ratio to wild type); higher = more cleavage; in vitro, sequencing; the parent is a self-cleaving ribozyme

Row | Variant | self-cleavage
1 | GUUAACGGUCAUAGGCCAUGGAAACUAGGAGCACCAUUUCGCUGCCAGUGAGGAAAUGAACAAAGAAAAUCUGGGCCAGGCAGGCAUCAAAAGAAAUAGUCUUGCGCUCAACCAGAAAGCCUGUAAUCACUUUAAGGGUA | 0.73
2 | GUCAACGGUCAUAGGCCAUGGUAACUAGGAGCACCAUUUCGCUGCCAGUGAAGAAAUGAACAAAGAAAAUCUGGGCCAGGCAGGCAUCAAAAGAAAUAGCCUUGCGCUCAACCAGAAAGUCUGUAAUCAUUUUAAGGGUA | 1.77
3 | GUUAACGGUCAUAGGCCAUGGAACCUAGGAGCACCAUUUCGCUGCCAGUGAAGAAAUGAACAGAGAAGAUCUGGGCCAGGCAGGCAUCAAAAGAAAUAGUCUUGCGCUCAACCAGAAAGUCUGUAAUCAUUUUAAGGGUA | 1.02
4 | GUUAACGGUCAUAGGCCAUGGAAACUAGGAGCACCACUUCGCUGCCAGUGAAGGAAUGCACAAAGAAAAUCUGGGCCAGGCAGGCAUCAAAAGAAAUAGUCUUGCGCUCAACCAGAAAGUCUGUAAUCAUUUUAAGGGUA | 0.95
5 | GUUAACGGUCAUAGGCCAUGGAAACUAGGAGCACCAUUUCACUGCCAGUGAAGAAAUGAACAAAGAAAGUCUGGGCCAGGCAGGCAUCAACAGAAAUAGUCUUGCGCUCAACCAGAAGGUCUGUAAUCAUUUUAAGGGUA | 0.88
6 | GUUAACGGUCAUAGGCCAUGGAAACUAGGAGCACCAUUUCGCUGCCAGUGAAGAAAUGAACUAAGAGAAUCUGGGCCAGGCAGGCAUCAAAAGAAAUAGUCUUGCGCUCAACCAGUAAGUCCGUAAUCAUUUUAAGGGUA | 0.11
7 | GUUAACGGUCAUAGGCCAUGGAAACUAGGAGCACCACUUCGCUGCCAGUGAAGAAAUGUGCAAAGAAAAUCUGGGCCAGGCAGGCAUCAAAAGAAAUAGCCUUGCGCUCAACCAGAAAGUCUGUAAUCAUUUUAAGGGUA | 2.15
8 | GUUAACGGUCAUAUGCCAUGGAAACUAGGAGCACCAUUUCGCUGCCAGUGAAGAAAUGAACAAAGAAGAUCUGGGCCAGGCGGGCAUCAAAAGAAAUAGUCUUGCGCUCAACCAGAAAGUCUGUAAUCAUUUUAAGGGUA | 0.61
9 | GUUAACGGUCAUAGGCCAUGGAAACUAGGAGCACCAUUCCGCUGCCAGUGAGGUAAUGAACAAAGAAAAUCUGGGCCAGGCAGGCAUCAGAAGAAAUAGUCUUGCGCUCAACCAGAAAGUCUGUAAUCAUUUUAAGGGUA | 1.25
10 | GUUAACGGUCAUAGGCCAUGGAGACUAGGAGCACCAUUUCGCUGCCCGUGAAGAAAUGAACAAAGAAAAUCAGGGCCAGGCGGGCAUCAAAAGAAAUAGUCUUGCGCCCAACCAGAAAGUCUGUAAUCAUUUUAAGGGUA | 0.03
11 | GCUAACGGUCAUAGGCCAUGGAAACUAGGAGCACCAUUUCGCUGCCUGUGAAGAAAUGUACAAAGAAAAUCUGGGCCAGGCAGGCAUCAAAAGAAGUAGUCUUGCGCUCAACCAGAGAGUCUGUAAUCACUUUAAGGGUA | 0.21
12 | GUUAACGGUCAUAGGCCAUGUAACCUAGGAGCACCAUUUCGCUGCCAGUGAAGAAAAGGACAAGGAAAAUCUGGGCCAGGCAGGCAUCAAAAGAAAUAGUCUUGCGCUCAACCAGAAAGUCUGUAAUCAUUUUAAGGGUA | 1.4
13 | GUUAACGGUCAUAGGCCAUGGAAACUAGGAGCACCAUUUCGCUGCCAGUGGAGAAAUGAACGAAGAAAAUCUGGGCCAGGCAGGCAUCAAAAGAAAUAGUCUUGCGCUCAACCAGAAUGUCUGUAAUCAUUUUAAGGGUA | 0.11
14 | GUUAACGGUCAUAGGCCAUGGAAACUAGGAGCACCAUUUCGCUGCCAGUGAAGGAAUGAACAAAGAAAAUCUGGGCCAGGCAGGCAUCAAAAGAAAUAGUCUCGCGCUCAACCAGAGAGUCUGUAAUCAUUUUAAGGGUA | 1.59
15 | GUUAACGGUCAUAGGCCAUGGAAACUAGGAGCACCAUUUCGCUGCCAGUGAGGAAAUGAACAAGGAAAAUCUGGGCCAGGCAGGCAUCAAAAGAAAUAGUCUAGCGCUCAACCAGAAAGUCUGUAAUCAUUCUAAGGGUA | 0.91
16 | GUUAACGGUCAUAGGCCAUGGGAACAAGGAGCACCAUUUCGCUGCCAGUGAAGAAAUGAUCAAAAAAAAUCUGGGCCAGGCAGGCAUCAAAAGAAAUAGUCUUGCGCUCAACCAGAAAGUCUGUAAUCAUUUUAAGGGUA | 0.98
17 | GUUAACGGUCAUAGGCCAUGGAAACUAGGAGCACCAUUUCGCUGCCAGUGUAGAAAUGAACGAAGAAAAUCUGGGCCAGGCAGGCAUCAAAAGAAAUAGUCAUGCGCCCAACCAGAAGGUCUGUAAUCAUUUUAAGGGUA | 0.01
18 | GUUAACGGUCAUAGGCCAUGGAAACUAGGAGCACCAUUCCGCUGCCAGUGAAGAAAUGAACAGAGAAAAUCUGGGCCGGGCAGGCAUCAAAAGUAACAGUCUUGCGCUCGACCAGAAAGUCUGUAAUCAUUUUAAGGGUA | 0.03
19 | GUUAACGGUCAUAGGCCAUGGAAACUAGGAGCACCAUUUCGCUGCCAGUGAAGAAAUGAACAAAGAAAAUCUGGGCCAGGCAGGCUUCAAAAGAAGUGGUCUUGCGCUCAACCAGAAAGUCUGUAAUCAUUUUAAGGGUA | 0.7
20 | GUUAACGGUCAUAGGCCAUGGAGACUAGGAGCACCAUUUCGCUGCCAGUGAAGAAAUGAACAAAGAAAAUCUGGGCCAGGCAGGCAUCAAAAGAAAUAGUCUCGCACACAACCAGAAAGUCUGUAAUCAUUUUAAGGGUA | 0.01
21 | GUUAACGGUCAUAGGCCAUGGAAACUAGGAGCACCAUUUCGCCGCCAGUGAAGAAAUGAACAAAGAAAGUCUGGGCCAGGCAGGCAUCAAAAGAAAUGGUCUUGCGCUCAACCAGAGGGUCUGUAAUCAUUUUAAGGGUA | 0.19

Row | Variant | self-cleavage
22 | GAUAACGGUCAUAGGCCAUGGAAACUAGGAGCACCAUUUCGCUGCCAGUGAAGAAAUGAACAAGGAAAAUCUGGGCCAGGCAGGCAUCAAAAGAAAUAGUCUUGCGCUCAACCAAAAAGUCUGUAAUCAUUUUAAGGGUA | 0.4
23 | GUUAACGGUCAUAGGCCAUGGAAACUAGGAGCACCACUUCGCUGCCAGUGAAGAAAUGAACAAAGAGAAUCUGGGCCAGGCAGGCAUCAAAAGAAAUAGUCUCGCGCUCAACCAGAAGGUCUGUAAACAUUUUAAGGGCA | 0.88
24 | GUUAACGGUCAUUGGCCAUGGAAACUAGGAGCACCAUUCCGCUGCCAGUGAAGAAAUGAACAGAGAAAAUCUGGGCCAGGCAGGCAUCAAAAGAAAUAGUCUUGUGCUCAACCAGAAAGUCUGUAAUCAUUUUAAGGGUA | 0.49
25 | GUUAACGGUCAUAGGCCAUGGAAACUAUGAGCACCAUUUCGCUGCCAGUGAAGAAGUGAACAAAGAAAAUCUGGGCCAGGCAGGCAUCAAAAGAAAUAGUCUUGCGCUCAACCAGGAAGUCUGUAAUCAUUUUAAGGGUA | 1.83
26 | GUUAACGGUCAUAGGCCAUGGAAACUAGGAGCACCAUUUCGCUGCCAGUGAAGAAAUGAACAAAGAAAAUCUGGGCCAGGCAGGCAUCAAAAGAAGUAGACUUGCGCUCAACCAGAAAGUCCGUAAACAUUUUAAGGGUA | 1.16
27 | GUUAACGGUCAUAGGCCAUGGAUACUAGGAGCACCAUUCCGCUGCCAGUGAAGAAAUGAACAAAGAAAAUCUGGGCCAGGCAGGCAUCAAAAGAGAUAGUCUUGCGCUCAACCAGAAAGUCUGUAAUCAUUCUAAGGGUA | 1.02
28 | GUUAACGGUCAUAGGCCAUGGAAACUAGGAGCACCAUCUCGCUGCCAGUGAAGAAAUGAACAAAGAAAAUCUGGGCCAGGCAGGCAUCAAAAGAAAUAGUCUUGCGCACAACCUGAAAGUCUGUAAUCAUUUUAAGGGUA | 0
29 | GUUAACGGUCAUAGGCCAUGGAAACUAGGAGCACCAUUCCGCCGCCAGUGAAGAAAUGAACAAAGAAAAUCUGGGCCAGGCAGGCAUCAAAGGAAAUAGUCUUGCGCUCAACCAGAAAGUCUGUAAUCAUUUUAAGGGUA | 1.67
30 | GUUAACGGUCAUAGGCCUUGGAAACUAGGAGCACCAUUUCGCUGCCAGUGAAGAAAUGAACAAAGACUAUCUGGGCCAGGCAGGCAUCAAAAGAAAUAGUCUUGCGCUCAACCAGAAAGUCUGUAAUCAUUUUAAGGGUA | 1.86
31 | GUUAACGGUCAUAGGCCGUGGAAACUAGGAGCACCAUUUCGCUGCCAGUGAAGAAAUGAACAAAGUAAAUCUGGGCCUGGCAGGCAUCAAAAGAAAUAGUCUUGCGCUCAACCAGAAAGUCUGUAAUCACUUUAAGGGUA | 0.33
32 | GUUAACGGUCAUAGGCCAUGGAAGCUUGGAGCACCAUUUCGCUGCCAGUGAAGAAAUGAAUAAAGAAAAUCUGGGCCAGGCAGGCAUCAAAAGAAAUAGUCUUGCGCUCAACCAGAAAGUCUGUAAUCAUUUUAAGGGUU | 2.44
33 | GUCAACGGUCAUAGGCCAGGGAAGCUAGGAGCACCAUUUCGCUGCCAGUGUAGAAAUGAACAAAGAGAAUCUGGGCCAGGCAGGCAUCAAAAGAAAUAGCCUUGCGCUCAACCAGAAAGUCCGUAAUCAUUUUAAGGGUA | 1.12
34 | GUUAACGGUCAUAGGCCAUGGAAACUAGGAGCACCUUUUCGCAGCCAGUGAAGAAAUGGACAAAGAAAAUCUGGGCCAGGCAGGCAUCAAAAGAAAUAGUCUUGCGCUCAACCAGAAAGUCUGUAAUCAUUUUAAGGGUA | 1.5
35 | GUUAACGGUCAUAGGCCAUAGAAACUAGGAGCACCAUCUCGCUGCUAGUGAAGAAAUGAACAAAGAAAAUCUGGGCCAGGCAGGCAUCAAAAGAAAUAGUCUUGCGCUCAACCAGAUAGUCUGUAAUCAUUUUAAGGGUA | 1.43
36 | GUUAACGGUCAUAGGCCAUGGAAACUAGGAGCAGCAUUUCGCUGCCAGUGAAGAAAUGAACAAAGAAAAUCUGGGCCAGGCAGGCAUCAAAAGAAGUAGUCUUGCGCUCAACCAGAAAGUCUGUGAUCAUUUUAAGGGUA | 0.57
37 | GUUAACGGUCAUAGGCCAUGGAAACUAGGAGUACCAUUUCGCUGCCAGUGAAGAAAUGUACAAAGAAAAUCUGGGCCAGGCAGGCAUCAAAAGAAAUAGUCUUGCGCUCAACCAGAAAGUCUGUAAUCAUCUUAAGGGUA | 1.43
38 | GUUAACGGUCAUAGGCCAUGGAGACUAGGAGCACCAUUUCGCUGCCAGUGAAGAAAAGAACAAAGAAAAUCUGGGCCGGGCAGGCAUCAAAAGAAAUAGUCUUGCGCUCAACCAGAAAGUCUGUAAUCAUUUUAAGGGUA | 0.18
39 | GUUAACGGUCAUAGGCCAUGGAAAAUAGGAGCACCAUUUCGCUGCUAGUGAAGGAAUGAACAAAGAAAAUCUGGGCCAGGCAGGCAUCAAAAGAAAUAGUCUUGCGCUCAACCAGAAAGUCUGUAAUCAUUUUAGGGGUA | 1.48
40 | GGUGACGGUCAUAGGCCAUGGAAACUAGGAGCACCAUUACGCUGCCAGUGAAGAAAUGAACAAAGAAAAUCUGGGCCAGGCAGGCAUCAAAAGAAAUAGUCUUGCGCUCAACCAGAAAGUCUGUAAUCAUUUUAAGGGUA | 0.46
41 | GUUAACGGUCAUAGGCCAUGGAAACUAGGAGCACCAUUUCGCUGCCAGUGAAGAGAUGAACAAAGAAAGUCCGGGCCAGGCAGGCAUCAAAAGAAAUAGUCUUGCGCUCAACCAGAAAGUCUGUAAUCAUUUUAAGGGUA | 0.07
